The values below come from the RNAGym collection of RNA variant scans (doi:10.7554/elife.90254).

B1: OR4K15 (parent)
chain: GUUAACGGUCAUAGGCCAUGGAAACUAGGAGCACCAUUUCGCUGCCAGUGAAGAAAUGAACAAAGAAAAUCUGGGCCAGGCAGGCAUCAAAAGAAAUAGUCUUGCGCUCAACCAGAAAGUCUGUAAUCAUUUUAAGGGUA

The source gives no read counts; variants with many changes may rest on few reads.

The variants in this data set derive from B1. The data set is described as follows: self-cleavage, relative activity (ratio to wild type); higher = more cleavage; in vitro, sequencing; the parent is a self-cleaving ribozyme.
Turning to GUUAACGGCCAUAGGCCAUGGAAACUAGGAGCACCAUUUCGCUGCCAGUGAUGAAAUGAACAAAGGGAAUCUGGGCCAGGCAGGCAUCAAAAGAAAUAGUCUUGCGCUCAACCAGAAAGUCUGUAAUCAUUUUAAGGGUA, the self-cleavage is 0.89.

Take GUUAACGGCCAUAGGCCAUGGAAACUAGGAGCACCGUUUCGCCGCCAGUGAAGAAAUGGACAAAGAAAAUCUGGGCCAGGCAGGCAUCAAAAGAAAUAGUCUUGCGCUCAACCAGAAAGUCUGUAACCAUUUUAAGGGUA: the self-cleavage worked out at 0.82.

Regarding GUUAACGGCCAUAGGCCAUGGAAACUAGGAGCACCAUUUCGCUGCCAGUGGAGAAGUGAACAAAGAAAAUCUGGGCUAGGCAGGCAUCAAAAGAAAUAGUCUUGCGCUCAACCAGAAAGUCUGUAAUCAUUUUAAGGGUA, the self-cleavage worked out at 0.82.

GUUAACGGCCAUAGGCCAUGGAAACUAGGAGCACCAUUUCGCUGCCAGUGAAGAGAUGAACAAAGAAAAUCUGGGCCAGGCAGGCAUCAAAAGAAAUAGUCUUGCGCUCUACCAGAAAGUCUGUAAUCAUUUUAAGGGUA: the self-cleavage worked out at 1.48.

GUUAACGGCCAUAGGCCAUGGAAACUAGGAGCACCAUUUCGCUGCCAGUGAGGAAAUGAACAAAGAAAAUCUGGGCCAGGCAGGCAUCAAAAGAAGUAGUCUUGCGCUCAACCAGAAAGUCUGUAAUAAUUUUAAGGGUA: the self-cleavage was 0.38.

Take GUUAACGGCCAUAGGCCAUGGAAACUAGGAGCACCAUUUCGCUGCCAGUGUAGAAAUGAACAAAGAAAAUCUGGGCCAGGCAGGCAUCAAAAGAAAUAGUCUUGCGCUCAACCAGAAAGUCUGUGAUCAUUUUAAGGGUA: the self-cleavage came to 1.52.

As for GUUAACGGCCAUAGGCCAUGGAAACUAGGAGCACCUUUUCGCUGCCAGUGAAGAAAUGAACAAAGAAAAUCUGGGCCAGGCAGGCAUCAAAAGAGAUAGUCUUGCGCUCAACCAGAAAGUCUGUAAUCAUUUUAAGGGUA, the self-cleavage came to 1.78.

For the variant GUUAACGGCCAUAGGCCAUGGAAACUAGGAGCACCAUUUCGCUGCCAGUGAAGAGAUGAACAAAGAAAAUCUGGGCCAGGCAGGCAUCAAAAGAAAUAGUCUUGCGCUCAACCAGAAAGUCUGUAGUCAUUUUAAGGGUA, the self-cleavage was found to be 0.89.

As for GUUAACGGCCAUAGGCCAUGGAAACUAGGAGCUCCGUUUCGCUGCCAGCGAAGAAAUGAACAAAGAAAAUCUGGGCCAGGCAGGCAUCAAAAGAAAUAGUCUUGCGCUCAACCAGAAAGUCUGUAAUCAUUUUAAGGGUA, the self-cleavage came to 1.6.

For the variant GUUAACGGCCAUAGGCCAUGGAAACUAGGAGCACCAUUUCGCUGCCAGUGUAGAAAUGAACAAAGAAAAUCUGGGCCAGGCAGGCAUCAAAAGAAAUAGUCUUGCGCUCAACCAGAAAGUCUGUAAUCAUUUUAGGGGUA, the self-cleavage was determined as 1.03.

In the case of GUUAACGGCCAUAGGCCAUGGAAACUAGGAGCACCAUUUCGCUGCCGGUGAAGAAAUGAUCAAAGAAAAUCUGGGCCGGGCAGGCAUCAAAAGAAAUAGUCUUGCGCACAACCAGAAAGUCUGUAAUCAUUUUAAGGGUA, the self-cleavage came out at 0.02.

As for GUUAACGGCCAUAGGCCAUGGAAACUAGGAGCGCCAUUUCGCUGCCAGUGAAGAAAUGAACAAAGAAAAUCUGGGCCAGGCAGGCAUCAAAAGAAAUAGUCUUGCGCUCAACCGGAAAGUCUGUAAUCAUUUUAGGGGUA, the self-cleavage stood at 0.25.

As for GUUAACGGCCAUAGGCCAUGGAAACUAGGAGCACCAUUUCGCUGCCGGUGAAGAAGUGAACUAAGAAAAUCUGGGCCAGGCAGGCAUCAAAAGAAAUAGUCUUGCGCUCAACCAGAAAGUCUGUAAUCCUUUUAAGGGUA, the self-cleavage turned out to be 0.48.

On to GUUAACGGCCAUAGGCCAUGGAAACUAGGAGCACCAUUUCGCUGCCAGUGAGGAAGUGAACAAAGAAAAUCUGGGCCAGGCAGGCAUCUAAAGAAAUAGUCUUGCGCUCAACCAGAAAGUCUGUAAUCAUUUUAAGGGUA, for which the self-cleavage came out at 1.79.

As for GUUAACGGCCAUAGGCCAUGGAAACUAGGAGCGCCAUUCCGCUGCCAGUGAAGAAAUGAACAAAGAAAAUCUGGGCCAGGCAGGCAUCAAAAGAAAUAGUCUUGCGCUCAACCAGAAAGUCUGUAAUCAUUUUAAGGGUA, the self-cleavage turned out to be 2.22.

On to GUUAACGGCCAUAGGCCAUGGAAACUAGGAGCACCAUUUCGCUGCCAGUGAAGGAAUGAACAAAGAAUAUCUGGGCCAGGCAGGCAUCAAAAGAAAUAGUCUUGCGCUCAACCAGAAAGUCUGUAAUCAUCUUAAGGGUA, for which the self-cleavage is 0.91.

Consider GUUAACGGCCAUAGGCCAUGGAAACUAGGAGCACCAUUUCGCUGCCAGUGAGGAAAUGAACAAAGAAAAUCUGGGCCAGGCAGGCAUCAAAAGAAAUAGUCUUGCGCUCAACCAGGAAGUCUGUAGUCAUUUUAAGGGUA, for which the self-cleavage is 0.08.

Regarding GUUAACGGCCAUAGGCCAUGGAAACUAGGAGCGCCAUUUCGCUGCCAGUGAAGAAAUGAACAAAGAAAAUCUGGGCCGGGCAGGCAUCAAAGGAAACAGUCUUGCGCUCAACCAGAAAGUCUGUAAUCAUUUUAAGGGUA, the self-cleavage was determined as 0.13.

Turning to GUUAACGGCCAUAGGCCAUGGAAACUAGGAGCGCCAUUUCGCAGCCAGUGAAGAAAUGAACAAAGAAAAUCUGGGCCAGGCAGGCAUCAAAAGAAAUAGUCUUGCGCUCAACCAGAAAGUCUGUGAUCAUUUUAAGGGUA, the self-cleavage was determined as 0.43.

For the variant GUUAACGGCCAUAGGCCAUGGAAACUAGGAGCACCAUUUCGCUGCCAGUGCAGAAAUGUACAAAGAAAAUCUGGGACAGGCAGGCAUCAAAAGAAGUAGUCUUGCGCUCAACCAGAAAGUCUGUAAUCAUUUUAAGGGUA, the self-cleavage is 0.12.
